Experimental data published in ChEMBL document CHEMBL1148800, “Novel 2,7-dialkyl-substituted 5(S)-amino-4(S)-hydroxy-8-phenyl-octanecarboxamide transition state peptidomimetics are potent and orally active inhibitors of human renin” (J Med Chem, 2007).

Experiments:
[1] = organism: Callithrix jacchus; test: animal or person; conditions: Plasma, po, 6 h, read-out: Inhibition
[2] = in vivo; conditions: marmoset
[3] = in vivo; conditions: marmoset, 3 mg/kg
[4] = physchem
[5] = in vivo; conditions: marmoset, po, 10 mg/kg
[6] = in vivo; conditions: marmoset; remark: listed apart in the source
[7] = in vivo; conditions: marmoset; remark: listed apart in the source
[8] = physchem; conditions: buffer, pH 6
[9] = physchem; conditions: octanol/water, pH 7.4
[10] = physchem; conditions: buffer, pH 7

With `CNC(=O)CCCNC(=O)[C@H](C)C[C@H](O)[C@@H](N)C[C@H](Cc1ccc(OC)c(OCCCOC)c1)C(C)C` the inhibition in vivo at 3 mg/kg [1] was 74%.

`CCCCNC(=O)[C@H](C)C[C@H](O)[C@@H](N)C[C@H](Cc1ccc(OC)c(OCCCOC)c1)C(C)C.Cl` showed a half-life [2] of 2 h, a bioavailability [3] of 16% and a pKa [4] of 9.13. The bioavailability [5] was 16%, the Vd [6] was 0.6 L/kg and the clearance [7] was 5.2 mL/min/kg. It also gave a solubility [8] of 56 mg/mL, a logD [9] of 1.96 and a solubility [10] of 11 mg/mL.
